Assay results: PubChem BioAssay AID624418 (National Center for Advancing Translational Sciences (NCATS), 2012)
Hit rate of the full screen: of about 410,000 compounds, about 530 (0.13%) were called active. Inconclusive means that the source gave no clear call. Such entries were picked first, then a sample of the others. Calls come from the whole dose curve; as a rule, active = well fitted inhibition curve with a large enough effect; inconclusive = small, poorly fitted or top-dose-only effect, or another doubt; inactive = no such curve, though single readings can be large or run the other way. Potencies beside an inconclusive call are fits to weak or partial responses and may not hold up.

Assay: qHTS of GLP-1 Receptor Inverse Agonists: Cytotox Screen
Details: HEK293 cAMP-luciferase reporter cells, luminescence, 24 h; activity change, negative = inhibition: at 38.3 µM (top of the series)
Summary of the method: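 Cells in DMEM/10% Nu serum/1% pen-strep, 1536-well format. Pre-incubated 12 h, dosed with 23 nL compound, incubated a further 24 h. Luciferase detection, 12 min at room temp, luminescence.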
% is set by controls: 0 for no effect and ±100 for the full control effect; potency is the fitted concentration of half-maximal effect.

| SMILES | Potency | activity change, negative = inhibition |
| --- | --- | --- |
| CC(NC(=S)NC1CCCCC1)c1ccc(C(C)(C)C)cc1 (stereo unspecified) | inconclusive: 2.82 µM [inhibitor, single point] |  |
| CCc1cccc(C)c1NC(=S)NCc1ccccc1 | inconclusive: 12.6 µM [inhibitor, single point] |  |
| COc1cscc1C(=O)O | inconclusive: 28.2 µM [inhibitor, single point] |  |
| Cc1ccccc1NC(=O)c1c(NC(=O)C(C)Oc2cccc(Cl)c2)sc2c1CCCC2 (stereo unspecified) |  | inactive: -1.17% |
| CCOC(=O)NC1CCc2cc(OC)c(OC)c(OC)c2-c2ccc(SC)c(=O)cc21 (stereo unspecified) | inconclusive: 35.5 µM [inhibitor, partial curve, poor fit] |  |
| N=c1oc2ccccc2cc1C(=O)NC1CCCCCC1 |  | inactive: 7.5% |
| CCN1CCC(N(Cc2ccc3c(c2)OCO3)C(=O)Nc2cc(Cl)ccc2C(=O)OC)CC1 | inconclusive: 28.2 µM [inhibitor, single point] |  |
| O=C(O)c1cccc(NN=C2c3ccccc3-c3ccccc32)c1 | inconclusive: 22.4 µM [inhibitor, single point] |  |
| CC1CCc2sc(C(=O)OCC(=O)NCc3ccccc3)cc2C1 (stereo unspecified) | inconclusive: 12.6 µM [inhibitor, single point] |  |
| CC(=O)/C=C1/C(=O)Nc2ccccc21 | inconclusive: 12.6 µM [inhibitor, single point] |  |
| Cc1ccc(NC(=O)CN(C)Cc2cccs2)cc1Cl |  | inactive: 3.21% |
| Fc1ccc(/C=N/NC(=S)NCCc2ccccc2)cc1F | active: 12.6 µM |  |
| COc1ccc(C(=O)N2CCCCC2c2cc(C(=O)NCc3ccc(F)cc3)no2)cc1 (stereo unspecified) |  | inactive: 0.127% |
| COc1ccc(NC(=O)C2CCCN(CCCc3ccccc3)C2)cc1OCC(C)C (stereo unspecified) | inconclusive: 28.2 µM [inhibitor, single point] |  |
| CC(NC(=O)CSc1nc(C2CC2)n(-c2ccccc2)n1)c1ccco1 (stereo unspecified) |  | inactive: -5.05% |
| COc1ccc2c(=O)c3c(=O)n(Cc4ccco4)c(-c4ccco4)nc3oc2c1 | inconclusive: 1 µM [inhibitor, partial curve, poor fit] |  |
| CCCOc1ccc(NC(=O)c2c(-c3ccccc3)noc2C)cc1 | inconclusive: 1.78 µM [inhibitor, partial curve, poor fit] |  |
| Cc1ccc2cccc(NC(=S)NC(=O)c3ccn(C)n3)c2n1 | inconclusive: 28.2 µM [inhibitor, single point] |  |
| COc1cc(NC(=O)CSc2c3c(nc4ccccc24)CCC3)cc(OC)c1OC | inconclusive: 28.2 µM [inhibitor, single point] |  |
| O=C(CSc1nc(-c2cccc(F)c2)[nH]c1-c1ccccc1)Nc1ccc2c(c1)OCO2 | inconclusive: 31.6 µM [inhibitor, single point] |  |
| COC(=O)c1cc2sc(Cl)cc2n1CC(=O)Nc1cccc(SC)c1 | inconclusive: 5.62 µM [inhibitor, partial curve] |  |
| O=C(CSc1nc2ccccc2nc1Cc1ccc(Cl)cc1)N1CCN(c2ccccc2)CC1 |  | inactive: 3.2% |

| SMILES | Potency | activity change, negative = inhibition |
| --- | --- | --- |
| CCc1ccccc1N(C)C(=O)C1CCCN(c2ncnc3c2nc2n3CCCCC2)C1 (stereo unspecified) |  | inactive: 1.09% |
| CN1C(=O)/C(=C/c2ccccc2Cl)Sc2ccc(C(=O)N3CCCC3)cc21 | inconclusive: 28.2 µM [inhibitor, single point] |  |
| O=C(CNC(=O)c1ccccc1Cl)N/N=C/c1ccc([N+](=O)[O-])s1 | inconclusive: 11.2 µM [inhibitor, single point] |  |
| COc1ccc(C(=O)Oc2c(CN3CCOCC3)cc(Cl)c3cccnc23)cc1OC | inconclusive: 15.8 µM [inhibitor, partial curve, poor fit] |  |
| O=C(Nc1sc2c(c1C(=O)NCc1cccnc1)CCCC2)c1ccco1 |  | inactive: 1.65% |
| CC(C)(C)NS(=O)(=O)c1ccc(NC(=O)C(Sc2ccccc2)c2ccccc2)cc1 (stereo unspecified) | inconclusive: 28.2 µM [inhibitor, single point] |  |
| CC1Cc2ccccc2N1C(=O)Cn1cc([N+](=O)[O-])cn1 (stereo unspecified) |  | inactive: -2.21% |
| Cc1ccc2c(=O)cc(C(=O)Nc3c(C)n(C)n(-c4ccccc4)c3=O)oc2c1 |  | inactive: -0.292% |
| COc1ccc(NC(=O)/C(Cl)=C(/Cl)S(=O)(=O)Cc2ccc(C)cc2)cn1 | inconclusive: 3.98 µM [inhibitor, full curve] |  |
| Brc1ccccc1-n1nnc(-c2ccnc3ccccc23)n1 | inconclusive: 28.2 µM [inhibitor, single point] |  |
| COc1cc(NC(=O)CSc2nc3nc(C)c(Cc4ccccc4Cl)c(C)n3n2)cc(OC)c1 |  | inactive: -21.9% |
| COc1cc(/C=C(/C(=O)c2cccs2)c2nc3ccccc3[nH]2)ccc1O | inconclusive: 10 µM [inhibitor, single point] |  |
| C/C(=N\NC(=S)Nc1ccccc1C)c1ccc(O)cc1 | inconclusive: 6.31 µM [inhibitor, partial curve, poor fit] |  |
| C#CCOCCOCCOCCNc1nc(N2CCN(C(=O)CCCCCCCCCCNC(=O)[C@H](CCCCN)n3cc(CCO)nn3)CC2)nc(N2CCN(C(=O)CCCCCCCCCCNC(=O)[C@H](CCCCN)n3cc(C[C@@H](C)CC)nn3)CC2)n1 | inconclusive: 28.2 µM [inhibitor, single point] |  |
| NC(=O)c1nsc(C(=O)N(c2ccccc2)C(C(=O)NCc2ccc(F)cc2)c2ccco2)c1N (stereo unspecified) | inconclusive: 22.4 µM [inhibitor, single point] |  |
| COc1cc2nc(SCc3ccc(C)cc3)n3nc(CCn4nc(C)cc4C)nc3c2cc1OC |  | inactive: 30.2% |
| CC1(C)CC2CC(C)(CN2C(=S)NC(=O)c2ccccc2Cl)C1 (stereo unspecified) | inconclusive: 12.6 µM [inhibitor, single point] |  |
| CC(C)(c1ccccc1)c1ccc(OCC(O)CNC2CCN(Cc3ccccc3)CC2)cc1 (stereo unspecified) | inconclusive: 11.2 µM [inhibitor, single point] |  |
| COc1ccc(CC(=O)Nc2sccc2C#N)cc1S(=O)(=O)N1CCOCC1 |  | inactive: -7.71% |
| COc1cccc(NC(=O)Cn2c(=O)n(-c3ccccc3)c(=O)c3oc4ccccc4c32)c1 | inconclusive: 11.2 µM [inhibitor, single point] |  |
| CCN(CC)CCn1c2ccccc2c2cnc(N)c(C#N)c21 | inconclusive: 12.6 µM [inhibitor, single point] |  |
| CC1(O)CC(c2ccc(Cl)cc2)=NN1C(=O)c1ccc([N+](=O)[O-])cc1 (stereo unspecified) | inconclusive: 28.2 µM [inhibitor, single point] |  |

| SMILES | Potency | activity change, negative = inhibition |
| --- | --- | --- |
| CCOc1ccccc1NC(=S)NC1CC2CCC1C2 (stereo unspecified) | inconclusive: 25.1 µM [inhibitor, single point] |  |
| O=[N+]([O-])c1ccc(O)c(/C=N/Nc2ccccc2Cl)c1 | inconclusive: 12.6 µM [inhibitor, single point] |  |
| CCCOc1ccccc1-n1sc2c(c1=S)-c1cc(OC)cc3c1N(C(=O)C3=O)C2(C)C | inconclusive: 12.6 µM [inhibitor, single point] |  |
| CC(NCc1cc(Br)ccc1OCC(=O)NCc1ccccc1)c1ccccc1 (stereo unspecified) | inconclusive: 10 µM [inhibitor, single point] |  |
| O=C(CNC(=O)c1ccco1)N=Nc1c(O)[nH]c2ccc([N+](=O)[O-])cc12 | inconclusive: 28.2 µM [inhibitor, single point] |  |
| COC(=O)c1ccc(CSC(=N)N)o1 | inconclusive: 28.2 µM [inhibitor, single point] |  |
| O=C(Nc1ccncc1)c1ccc(Cl)c(S(=O)(=O)N2CCc3ccccc32)c1 |  | inactive: -28.3% |
| Cc1ccc(S(=O)(=O)Oc2ccc(C)cc2/C=N/N=C2\NC(=O)C(C)S2)cc1 (stereo unspecified) | inconclusive: 10 µM [inhibitor, partial curve] |  |
| CC(=O)Nc1ccc(S(=O)(=O)N2c3ccc(F)cc3CCC2C)cc1 (stereo unspecified) | inconclusive: 8.91 µM [inhibitor, partial curve, poor fit] |  |
| CNC(=S)NCc1ccc(OC)cc1 | inconclusive: 31.6 µM [inhibitor, single point] |  |
| O=C(Nc1cc(S(=O)(=O)N2CCOCC2)ccc1N1CCCC1)c1ccc(Cl)cc1 |  | inactive: 1.39% |
| COc1ccc(C(C[N+](=O)[O-])c2c(-c3ccccc3)cc3ccccn23)cc1 (stereo unspecified) | inconclusive: 11.2 µM [inhibitor, single point] |  |
| COc1cc(OC)c(N(C)C(=O)Nc2cn(CC(C)C)c(=O)c3ccccc23)cc1Cl |  | inactive: -2.1% |
| Cn1c(-c2csc(-c3ccccc3)n2)n[nH]c1=S | inconclusive: 11.2 µM [inhibitor, partial curve, poor fit] |  |
| CCCCNc1ncnc2c1cnn2Cc1ccc(Cl)cc1 | inconclusive: 1.78 µM [inhibitor, full curve, poor fit] |  |
| COc1ccccc1C(CCNCc1ccc(N(C)C)cc1)c1ccc(OC(C)C)cc1 (stereo unspecified) | inconclusive: 28.2 µM [inhibitor, single point] |  |
| Cn1c(SCc2ccccc2Cl)nnc1-c1cnccn1 | inconclusive: 5.01 µM [inhibitor, full curve] |  |
| O=C(NCCc1ccc(F)cc1)C(=O)NCC1CCCN1S(=O)(=O)c1ccccc1 (stereo unspecified) | inconclusive: 11.2 µM [inhibitor, single point] |  |
| Cc1sc2nc(C3CC3)nc(SCC(=O)N3CC(=O)Nc4ccccc43)c2c1C | inconclusive: 3.98 µM [inhibitor, partial curve, poor fit] |  |
| O=C(NCCCOc1cccc(CN2CCCCC2)c1)c1ccc(Cl)c(Cl)c1 | inconclusive: 28.2 µM [inhibitor, single point] |  |
| Cc1cccc(NC(=S)NCCc2ccccc2)n1 | active: 3.98 µM |  |
| Cc1cc2c(cc1S(=O)(=O)Nc1cc(C(F)(F)F)cc(C(F)(F)F)c1)OCC(=O)N2 |  | inactive: -9.91% |
